Variants at the background level are over-represented here.
B1: TPR 5TU (parent)
chain: GGAUCUUCUCGAUCUAACAAAAAAGACAAAUCUGCCACAAAGCUUGAGAGCAUCUUCGGAUGCAGAGGCGGCAGCCUUCGGUGGCGCGAUAGCGCCAACGUUCUCAACUAUGACACGCAAAACGCGUGCUCCGUUGAAUGGAGUUUAUCAUG

Variants of: B1
Assay: polymerase ribozyme fitness, log enrichment relative to wild type (log ratio); higher = more active; in vitro selection for triplet polymerase activity
Outline: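 After PCR construction and transcription, each subunit's mutant library from a heterodimeric triplet polymerase ribozyme was annealed with a biotinylated primer, the partner subunit and triplets. Incubation was frozen, at −7 °C, and extended constructs were gel-excised, bound to streptavidin beads and amplified by RT-PCR, in one selection round done in triplicate. Fitness is the logarithm of a genotype's enrichment divided by that of the wild type, from inverse-variance-weighted replicate averages of Illumina-sequenced inputs and outputs. The base of the logarithm is 2, and genotypes needed ≥10 input reads and ≥1 read per output.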

GGAUCUUCUCGAUCUAACAAAAAAGACAAAUCUGCCACAAAGCUUGAGAGCAUGUUCGGAUGCAAAGGCGGCAGCCUUUGGUGGGGCGAUUGCGCCAACGUUCUCAACUAUGACACGCAAAACGCGUGCUCCGUUCAAUGGAGUUUAUCAUG and GGAUCUUCUCGAUCUAACAAAAAAGACAAAUCUGCCACAAAGCUUGAGAGCAUGUUCGGAUGCAGAAGCGGCAGCCCUCGGUGGCGAGAUAGCGCCAAUGUUCUCAACUAUGACACGCAAAACGCGUGCGCCGUUGAAUGGAGUUUAUCAUG cannot be ordered by “polymerase ribozyme fitness (log ratio)” value: ≤ -4.2 for the first, ≤ -4.2 for the second.

GGAUCUUCUCGAUCUAACAAAAAAGACAAAUCUGCCACAAAGCUUGAGAGCAUGUUCGGAUGCAGAGCCGGCAGCCUUCAGUGGCGCGAUAGCUCCAGCGUUCUCAACUAUGACACGCAAAACGCGUGCUCCGUUGAAUGGAGUUUAUCAUG and GGAUCUUCUCGAUCUAACAAAAAAGACAAAUCUGCCACAAAGCUUGAGAGCAUGUUCGGAUGCAGAGGCAGCAGCCUUCGGUGGCGCGAUCGCGCCAACGUUCUCAACUACGACACGCAAAACGCGUGCUCCGUUGAAUGGAGUUUAUCAUG cannot be ordered by “polymerase ribozyme fitness (log ratio)” value: ≤ -4.2 for the first, ≤ -4.2 for the second.

Going from GGAUCUUCUCGAUCUAACAAAAAAGACAAAUCUGCCACAAAGCUUGAGAGCAUGUUCGGAUGCAGAGGCGGCAGCCUUCUGUGGCGCGAUAGCGCCAACGUUAUCAACUAUGACACGCAAAACGCGUGCUCCGUUGAAUGGAGUUUAUCAUG to GGAUCUUCUCGAUCUAACAAAAAAGACAAAUCUGCCACAAAGCUUGAGAGCAUGUUCGGAUGCAGAGGCGGCAGCCUUCGGUGGCGCGAUAGCUCCAACGUUCUCAACUAUGACACGCAAAAUGCGUGCUCCCUUGAAUGGAGUUUAUCAUG, the “polymerase ribozyme fitness (log ratio)” value rises from ≤ -4.2 to -2.38.

GGAUCUUCUCGAUCUAACAAAAAAGACAAAUCUGCCACAAAGCUUGAGAGCAUGAUCGGAUGCAGAAGCGGCAGCGUUCGGUGGCCCGAUAGCGCCAACGUUCUCAACUAUGACACGCAAAACGCGUGCUCCGUUGAAUGGAGUUUAUCAUG and GGAUCUUCUCGAUCUAACAAAAAAGACAAAUCUGCCACAAAGCUUGAGAGCAUGGUCGGAUGCAGAGGCGGCAGCCUUCGGUGGCGCGAUAGCGCCAACGUUCUCAACUAUGACACGCAAAACGCGUGCUCCGUUGAAUGGAGUUUAUCAUG cannot be ordered by “polymerase ribozyme fitness (log ratio)” value: ≤ -4.2 for the first, ≤ -4.2 for the second.

First: GGAUCUUCUCGAUCUAACAAAAAAGACAAAUCUGCCACAAAGCUUGAGAGCAUGUUCGGAUGCAGAGGCGGCAGCCUGCGGUGGCGAGAUAGCGCCAACGUUCUCAACUAUGACACGCAAAACGCGUGCUCCGUUGAAUAGAGUUUAUCAUG
Second: GGAUCUUCUCGAUCUAACAAAAAAGACAAAUCUGCCACAAAGCUUGAGAGCAUGUUCGGAUGCAGAGGCGGCAGCCUUCGGGGGCGCGAUAGCGCCAACGUUCUCAACUAUGACACGCAAAACGCGUGCUCCGUUGAAUGGAGUUUAUCAUG
The “polymerase ribozyme fitness (log ratio)” value of the first is lower: ≤ -4.2 for the first, -0.687 for the second.

Going from GGAUCUUCUCGAUCUAACAAAAAAGACAAAUCUGCCACAAAGCUUGAGAGCAUGUUCGGAUGCAGAGGCGGCAGCCUUCGGUGGCGCGAGAGCGGCAACGUUCUCAACUGUGACACGUAAAACGCGUGCUCCGUUGAAUGGAGUUUAUCAUG to GGAUCUUCUCGAUCUAACAAAAAAGACAAAUCUGCCACAAAGCUUGAGAGCAUGUUCGGAUGCAGAGGCGGCAGCCUUCGGUGGCGCGAUAGCGCCAACGGUCUCAACUAUGACACGUAAAACGCGUGCUCCGUUGAAUGGAGUUUAUCAUG, the “polymerase ribozyme fitness (log ratio)” value rises from ≤ -4.2 to -2.4.

Going from GGAUCUUCUCGAUCUAACAAAAAAGACAAAUCUGCCACAAAGCUUGAGAGCAUUUUCGGAUGCAGAGGCGGCGGCCUUCGGUGGCGCGAUAGCGCCAACGUUCUCAACUAUGACACGCAAAACGCGUGCUCCGUUGAAUGGAGUUUAUCAUG to GGAUCUUCUCGAUCUAACAAAAAAGACAAAUCUGCCACAAAGCUUGAGAGCAUUUUCGGAUGCAGAGGCGGCAGCCUUCGGUGGCGCGUUGGCGCCAACGUUCUCAACUAUGACACGUAAAACGCGUGCUCCGCUGAAUGGAGUUUAUCAUG, the “polymerase ribozyme fitness (log ratio)” value falls from -0.166 to ≤ -4.2.

GGAUCUUCUCGAUCUAACAAAAAAGACAAAUCUGCCACAAAGCUUGAGAGCAUUUUCGGAUGCAGAGGCGGCAGCCUUCGGUGGCGCGUUAGCGGCAAAGUUCUCAACUAUGACACGCAAAACGCGUGCUCCGUUGAAUGGAGUUUAUCAUG and GGAUCUUCUCGAUCUAACAAAAAAGACAAAUCUGCCACAAAGCUUGAGAGCAUUUUCGGAUGCAGAGGCGGCAGCCUUCGGUGGCGCGAUUGCGCCAACGUUCUCAACUAUGACACGCAAAACGCAUGCUCCGUUGAAUGGAGUUGAUCAUG cannot be ordered by “polymerase ribozyme fitness (log ratio)” value: ≤ -4.2 for the first, ≤ -4.2 for the second.

First: GGAUCUUCUCGAUCUAACAAAAAAGACAAAUCUGCCACAAAGCUUGAGAGCAUUUUCGGAUGCAGAGGCGGCAGCCUUCGGUGGCGCGAUAGCGCCAACGUUCUCGACUAUGACACGCAAAACGCGUGCUCCGUUGAAUGGAGUUUAUCAUG
Second: GGAUCUUCUCGAUCUAACAAAAAAGACAAAUCUGCCACAAAGCUUGAGAGCAUUUUCGGAUGCAGAGGCGGCAGCCUUCGGUGGCGCGAUAGCGCCAACGUUCUCAACUAUGACACGCAAAACGCGUGCUCCGUUGAAUGGAGUUUAUCGUG
The “polymerase ribozyme fitness (log ratio)” value of the first is higher: -0.0717 for the first, -0.995 for the second.

With GGAUCUUCUCGAUCUAACAAAAAAGACAAAUCUGCCACAAAGCUUGAGAGCAUUUUCGGAUGCAGAGGAGGCAGCCUUCGGUGGCGCGAUAGCGCCAACGUUCUCAACUAUGACACGCAAAACGCGUGCUCCGUUGAAUGGAGCUUAUCAUG the “polymerase ribozyme fitness (log ratio)” value was -3.89.
